# Data published in ChEMBL document CHEMBL4888484, “Replenishing the malaria drug discovery pipeline: Screening and hit evaluation of the MMV Hit Generation Library 1 (HGL1) against asexual blood stage Plasmodium falciparum ,using a nano luciferase reporter read-out” (2022).
# The whole screen tested about 150,000 compounds, of which about 540 (0.36%) showed an effect of 50% or more. This is one part of the list.
# Tested on: Plasmodium falciparum
# Test: Primary screen in NF54 nanoGlo assay, in single point, at 2uM, 72h; a lower Z score goes with more inhibition
# Format: functional, Erythrocyte
# Conditions: timepoint 72 hour
Compound,% Inhibition,Z score
CCCc1nc(N2CCC[C@H](c3nc(C(C)C)no3)C2)no1,-16%,2.08
O=C(CCc1cccc2ccccc12)NCc1cncc(-c2ccsc2)c1,-2%,0.36
Cc1ccccc1C(=O)N(Cc1ccc(F)cc1)c1cccc(CC(=O)NCCN2CCCC2)c1,6%,-0.6
O=C(Nc1ncn(CC(=O)N2CCOCC2)n1)c1ccc(F)cc1,6%,-0.61
C=CCCC(=O)N1CCC[C@H](C(=O)c2cccc3ccccc23)C1,-1%,0.2
Cc1ccc(-c2nnc([C@H](C)Nc3cccc4c3OCCO4)o2)cc1,-9%,1.18
CC(C)=CCN(CC(N)=O)[C@H](C)c1ccccc1,-2%,0.32
c1ccc(-c2cc(-c3nc(-c4ccc5c(c4)OCO5)no3)n[nH]2)cc1,-10%,1.06
CCC(CC)C(=O)N1CC[C@@H](CC(=O)O)[C@@H](CC2=NCCc3cc(F)ccc32)C1,-3%,0.39
c1nc(Cn2nnnc2C2CCCCC2)cs1,5%,-0.98
CC1CN(Cc2ccccn2)CCC1Nc1ccc(CCO)cc1 (stereo not drawn),-2%,0.32
O=C(NCCOc1c(Cl)cc(Cl)cc1Cl)[C@H]1CCS(=O)(=O)C1,-15%,1.49
O=C(CCc1ccc(O)cc1)N1CCC[C@H]1CO,0%,-0.04
O=C(Nc1nncs1)c1ccc(N[C@@H]2CCC[C@H]2c2ccccc2)nc1,29%,-3.93
COCC(=O)N1CCC2(CC1)C(=O)N(CC(=O)N1CCCCC1)CN2c1ccccc1,-6%,0.94
Cc1ccc(-c2nc(-c3ccc(C(F)(F)F)cc3)sc2NC(=O)c2ccccc2)cc1,-8%,1.09
COc1ccc(CNC(=O)CN2C(c3ccccc3)=C[C@@H](c3ccc(C)cc3)n3nnnc32)cc1,-5%,0.52
O=C(CCc1ccncc1)N[C@H]1CCCC12OCCO2,0%,-0.06
O=C(c1ccc[nH]1)N1CCCN(C(=O)C2CC3CCC2O3)CC1 (stereo not drawn),-12%,2.16
CO[C@@]1(C)CCCN(C(=O)NCCc2ccc3[nH]ccc3c2)C1,-11%,1.84
C[C@H]1COCCCN1Cc1cncc(C(F)(F)F)c1,-9%,0.9

Compound,% Inhibition,Z score
Cc1cccc(NC(=O)Cn2c(=O)n(Cc3ccc4c(c3)OCO4)c(=O)c3sccc32)c1C,13%,-2.55
CC(=O)Nc1ccc(C(=O)N2CC[C@H](c3cccnc3)C2)cc1Cl,0%,-0.04
Cc1ccc(CN(C)C)cc1NC(=O)[C@@H](C(=O)O)C(C)(C)C,30%,-3.43
COc1ccc(S(=O)(=O)Oc2ccc3c(c2)ncn3C)cc1,-22%,3.28
CNc1nc(N2CCC(CO)(C[C@H]3CCCCO3)CC2)nc2c1CCC2,-18%,1.89
Cc1nnc(CC(=O)N2CCCC23CCC3)o1,-14%,1.38
Cc1noc(C)c1CO[C@H]1COCC[C@@H]1NC(=O)c1ncoc1C,-6%,0.88
COc1ccc(CN2CCC[C@H](Cn3ccnc3C)C2)cn1,-11%,1.66
O=C(NCCCc1ccccc1)N1CC(CN2C(=O)CCC2=O)C1,-9%,1.7
Cc1nc[nH]c1CN1CCN(c2ncccn2)CC1,-16%,2.23
NC(=O)[C@@H]1CCCCN1Cc1cnc2c(-c3ccccc3)cnn2c1,-14%,2.03
CCCn1nccc1S(=O)(=O)NCc1csc(C)n1,-9%,1.74
O=C1C2ON(c3ccc(Br)cc3)C(c3cccnc3)C2C(=O)N1c1cccc(C(F)(F)F)c1 (stereo not drawn),-3%,0.62
CN(CC(=O)NCCCc1ccccc1)c1nnc(N2CCCC2=O)s1,-2%,0.4
O=C(Nc1ccc(-c2nc3cc(Cl)ccc3o2)cc1)c1cccc2ccccc12,-3%,0.61
CN(C)[C@@H](CN=C(N)N1CCOCC1)c1cccc(C(F)(F)F)c1,-14%,1.43
CCc1cccc(NC(=O)[C@@H]2CCCCN2S(=O)(=O)c2cccc3c2N=S=N3)c1,-6%,0.62
CN(C[C@@H](O)Cc1ccccc1)c1cccc(C(=O)O)n1,2%,-0.33
Cc1[nH]c(-c2ccccc2)nc1C(=O)N1CCC[C@H](c2nc(CC(C)C)no2)C1,-5%,1.15
COc1cccc(NC(=O)c2c(NC(=O)c3ccc(C)cc3)sc(C)c2C)c1,-15%,1.94
CC(C)(C)n1ncc2c(=O)[nH]c(NC3CCN(Cc4ccccc4)CC3)nc21,8%,-1.02

Compound,% Inhibition,Z score
Cc1ccsc1CN1CC[C@@]2(C1)C(=O)N(CC(N)=O)c1ccccc12,-13%,2.44
Cc1ccc([C@H](C)c2nc(C3CC3)no2)o1,-3%,0.3
Cc1cc(C(=O)Nc2ccn(CCN(C)C)n2)nn1-c1ccc(F)cc1F,-13%,1.2
CN(CC#CCNC(=O)c1ccc(Cl)cc1Cl)Cc1ccccc1,0%,0.05
CCOc1nnc(CN2CCN(CC)c3ccccc32)s1,-14%,2.12
Cc1cc(C#N)nc(N2CCc3cc(C)c(C)cc32)n1,-8%,1.37
CC(C)c1cccc(N(C)C(=O)N(C)CCO)c1,-5%,0.97
Cc1ccc(C)c(N2CCN(C(=O)c3cc(C)nc4c3c(C)nn4-c3ccccc3Cl)CC2)c1,-1%,0.19
O=C(NCc1cccc(Br)c1)[C@H]1CCCN(c2nc3ccc(Br)cc3[nH]2)C1,-3%,0.48
Cc1nnc(N2CCN(CC(F)(F)CO)CC2)nc1C,-7%,1.36
Cc1c[nH]c(CN(C)C(=O)[C@H](C)n2nc(C)cc2C)n1,1%,-0.13
O=C(c1ccccc1)c1ccc2n1CC[C@H]2C(=O)NCc1cccc(Cl)c1,29%,-3.28
O=c1[nH]c2c(-c3ccccn3)nsc2c(=O)n1Cc1cc(F)cc(F)c1,-14%,1.8
O=C(Nc1cnc(C(F)(F)F)nc1)N(Cc1ccncc1)C1CC1,0%,-0.01
Cc1cc(C)n2nc(C(=O)N(Cc3ccccc3)c3nc4c(s3)CCCC4)nc2n1,-4%,0.46
CCN(CC)C(=O)Cn1c(=O)n(CCc2cccs2)c(=O)c2ccccc21,-12%,1.75
Cc1ccc(F)c(CN2[C@@H]3CC[C@H]2CNC(=O)C3)c1F,-21%,2.01
COCC1(CNS(=O)(=O)CC(C)C)CCC1,-3%,0.35
Cc1cc(Br)ccc1NC(=O)CCOC[C@H]1CCCO1,0%,0.04
COc1ccc([C@H](C)NC(=O)C(C)C)cc1,-2%,0.28
O=C(c1cccnn1)N1CCCC[C@@H]1CCc1ccccc1,-4%,0.62

Compound,% Inhibition,Z score
Cc1ccc2c(C(=O)N3CCC[C@H](C#N)C3)cc(-c3cncnc3)nc2c1C,-18%,2.63
C[C@H](NC(=O)C(=O)Nc1ccn(C)n1)c1ccc(F)cc1F,-10%,1.57
N#Cc1c(N)nc2c(c1-c1ccccc1OCc1ccccc1)CNCC2,9%,-1.8
Nc1ccc(CCS(N)(=O)=O)cc1,-10%,1.36
COCc1ccc(CN2CCC(n3nccc3NC(=O)[C@H]3CCOC3)CC2)o1,-6%,0.71
Cn1cnnc1[C@@H]1CCCN1Cc1c(Cl)cnn1C,-3%,0.42
COC(=O)[C@@H]1N[C@H](c2ccc(F)c(Cl)c2F)[C@@H]2C(=O)N(C)C(=O)[C@@H]21,-5%,0.67
CN(C)c1ccc(C(=O)N2CC[C@H]3NC(=O)N(Cc4ccccc4)C(=O)[C@H]32)cc1,40%,-4.51
c1ccc(Cc2cn[nH]c2[C@H]2CCCN(c3ncnc4[nH]ccc34)C2)cc1,11%,-2.16
Cc1cc(NC[C@H](O)c2cnn(C)c2)ncc1Br,38%,-0.98
O=C(CCc1cccnc1)NC1(c2nccs2)CCCC1,-2%,0.3
CCCn1c(C)c(C)c(S(=O)(=O)c2ccccc2)c1NC(=O)CC,-1%,0.12
O=C(O)Cc1sc(-c2ccccc2)nc1O,37%,-0.89
Cc1nc[nH]c1CNCCCc1ccccc1F,-1%,0.2
Cc1ccsc1S(=O)(=O)N[C@@H](CC(C)C)C(=O)O,-3%,0.29
Cc1ccc(C(=O)CN2C3=NCCCCN3c3ccccc32)cc1,-2%,0.27
OC1CC(CCNCc2ccc(C#Cc3cn[nH]c3)cc2)C1 (stereo not drawn),4%,-0.7
CCCn1cc(-c2ccncc2)cc1C(=O)N1CCN(C)CC1,-2%,0.28
Cc1nnc2c(N3CCC(NC(=O)c4c(F)cccc4Cl)CC3)nccn12,5%,-0.74
Cc1ccccc1C(=O)N1[C@H](C(=O)NCC(C)C)COC12CCN(C(=O)c1cccs1)CC2,-4%,0.75
COc1ccc(NC(=O)CC2(N3Cc4ccccc4C3=O)CCOCC2)cc1,-3%,0.38
